# Laboratory results published in patent US20200308244A1 (ORIONIS BIOSCIENCES, published 2020).
# T1: type I interferon-α/β receptor (IFNAR), composed of the IFNAR1 and IFNAR2 subunits (human, UniProt P17181 28-557; P48551 27-515)
# T1 sequence (looked up) 1: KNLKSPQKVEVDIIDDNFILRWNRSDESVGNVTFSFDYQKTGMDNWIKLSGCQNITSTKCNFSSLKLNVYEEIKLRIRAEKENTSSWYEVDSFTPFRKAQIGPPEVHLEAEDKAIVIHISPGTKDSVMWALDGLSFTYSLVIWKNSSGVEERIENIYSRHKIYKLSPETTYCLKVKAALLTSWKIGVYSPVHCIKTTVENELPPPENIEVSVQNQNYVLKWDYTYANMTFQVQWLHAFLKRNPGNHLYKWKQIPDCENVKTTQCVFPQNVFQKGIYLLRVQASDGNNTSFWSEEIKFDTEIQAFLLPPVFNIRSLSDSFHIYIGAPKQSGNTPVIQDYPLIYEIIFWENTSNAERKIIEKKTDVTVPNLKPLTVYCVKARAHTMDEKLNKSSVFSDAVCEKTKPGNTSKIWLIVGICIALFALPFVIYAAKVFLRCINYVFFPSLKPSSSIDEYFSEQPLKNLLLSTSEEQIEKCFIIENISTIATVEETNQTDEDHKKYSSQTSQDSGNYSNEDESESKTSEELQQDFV
# T1 sequence (looked up) 2: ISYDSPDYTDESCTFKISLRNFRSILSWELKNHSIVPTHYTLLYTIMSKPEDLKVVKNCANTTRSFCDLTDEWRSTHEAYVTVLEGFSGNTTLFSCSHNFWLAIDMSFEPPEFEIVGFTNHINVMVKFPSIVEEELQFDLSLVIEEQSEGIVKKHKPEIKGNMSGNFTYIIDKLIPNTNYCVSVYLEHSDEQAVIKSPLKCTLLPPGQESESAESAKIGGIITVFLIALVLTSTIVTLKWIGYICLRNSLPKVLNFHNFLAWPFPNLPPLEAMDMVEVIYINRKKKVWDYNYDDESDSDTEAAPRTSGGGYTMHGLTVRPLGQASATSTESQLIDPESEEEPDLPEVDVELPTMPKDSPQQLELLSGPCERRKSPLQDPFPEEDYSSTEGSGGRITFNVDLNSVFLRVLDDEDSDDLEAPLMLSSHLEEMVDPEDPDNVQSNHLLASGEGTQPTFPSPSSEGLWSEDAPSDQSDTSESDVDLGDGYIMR
# B1: R1CHCL50-5*GGS-human IgG1 Fc (hole; P-1479) + human IgG1 Fc (knob)-10*GGS-IFNα1(C86Y) (P-2216) (Fc fusion)
# chain 1: QVQLVESGGGLVHPGGSLRLSCAASGSFSSINVMGWYRQAPGKERELVARITNLGLPNYADSVTGRFTISRDNAKNTVYLQMNSLKPEDTAVYYCYLVALKAEYWGQGTQVTVSSGGSGGSGGSGGSGGSDKTHTCPPCPAPEAAGGPSVFLFPPKPKDTLMISRTPEVTCVVVDVSHEDPEVKFNWYVDGVEVHNAKTKPREEQYNSTYRVVSVLTVLHQDWLNGKEYKCQVSNKALPAPIEKTISKAKGQPREPQVCTLPPSRDELTKNQVSLSCAVKGFYPSDIAVEWESNGQPENNYKTTPPVLDSDGSFFLVSKLTVDKSRWQQGNVFSCSVMHEALHNHYTQKSLSLSPGK
# chain 2: [human IgG1 Fc with changes left out here]GGSGGSGGSGGSGGSGGSGGSGGSGGSGGSCDLPETHSLDNRRTLMLLAQMSRISPSSCLMDRHDFGFPQEEFDGNQFQKAPAISVLHELIQQIFNLFTTKDSSAAWDEDLLDKFYTELYQQLNDLEACVMQEERVGETPLMNADSILAVKKYFRRITLYLTEKKYSPCAWEVVRAEIMRSLSLSTNLQERLRRKE
# Columns and labels:
# Test in all cases: cell-based or functional assay
# human Clec9A [1] = molecular target: T2, human Clec9A (human, UniProt Q6UXN8 1-241)
# [2] = molecular target: T1, type I interferon-α/β receptor (IFNAR), …
# human Clec9A [3] = molecular target: T2, human Clec9A; remark: listed apart in the source
# T2 sequence (Q6UXN8 whole entry): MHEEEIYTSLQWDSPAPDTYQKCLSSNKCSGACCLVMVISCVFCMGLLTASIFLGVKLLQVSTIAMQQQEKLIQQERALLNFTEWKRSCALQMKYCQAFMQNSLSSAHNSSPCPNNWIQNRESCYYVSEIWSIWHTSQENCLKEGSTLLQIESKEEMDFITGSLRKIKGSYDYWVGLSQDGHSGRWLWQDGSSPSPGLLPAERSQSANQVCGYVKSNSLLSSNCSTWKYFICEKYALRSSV
# [4] = molecular target: T1, type I interferon-α/β receptor (IFNAR), …; remark: listed apart in the source
binder,measurement,setting,value
B1,"ratio of EC50 6-16 reporter activity, HL116 / HL116-CLEC9A",human Clec9A [1],> 1000 ratio
same,"EC50 6-16 reporter activity, HL116",[2],> 1000 pM
same,"EC50 6-16 reporter activity, HL116-CLEC9A",[2],1 pM
same,"selectivity window, pSTAT1 on cDC1 versus non-cDC1 cells",human Clec9A [3],> 100 fold
same,EC50 pSTAT1 on primary cDC1,[4],350 pM
